From patent EP4702986A1, “POLYPEPTIDE AND USE THEREOF” (Biocells (Beijing) Biotech Co., Ltd., priority 2023, dated 2024)
Where a chain is given by its changes, count along the chain named. pEC50: −log10 of the molar value. For at least one compound, name, drawing or mass did not settle the structure. Numbered stars: 1 amine (or outer) side, 2 acyl side, 3 side chain; on linkers, the order of the positions; unused ones are H or OH. Peptide text beside a SMILES is read from it. * marks the point of attachment. C18 diacid = O=C(O)CCCCCCCCCCCCCCCCC(=O)*; γGlu = O=C(O)[C@H](CCC(=O)[*:2])N[*:1]; Ethylenediamine = C(CN[*:2])N[*:1]; Suc = O=C(CCC(=O)[*:2])[*:1]; AEEA = NCCOCCOCC(=O)O

Columns and labels:
Assay type in all cases: cell-based
human ETB receptor = target: T1, human ETB receptor (Homo sapiens, UniProt P24530); experiment: Determination of EC50 of polypeptides against human ETB receptor (IP-One Gq kit); details: 293T-17 cells transfected with PCDNA3.1-hETB; read-out: hETBR agonist activity EC50/nM
T1 construct: expressed in transfected cells; host or cells: 293T-17 cells, transient transfection
T1 sequence (P24530 27-442): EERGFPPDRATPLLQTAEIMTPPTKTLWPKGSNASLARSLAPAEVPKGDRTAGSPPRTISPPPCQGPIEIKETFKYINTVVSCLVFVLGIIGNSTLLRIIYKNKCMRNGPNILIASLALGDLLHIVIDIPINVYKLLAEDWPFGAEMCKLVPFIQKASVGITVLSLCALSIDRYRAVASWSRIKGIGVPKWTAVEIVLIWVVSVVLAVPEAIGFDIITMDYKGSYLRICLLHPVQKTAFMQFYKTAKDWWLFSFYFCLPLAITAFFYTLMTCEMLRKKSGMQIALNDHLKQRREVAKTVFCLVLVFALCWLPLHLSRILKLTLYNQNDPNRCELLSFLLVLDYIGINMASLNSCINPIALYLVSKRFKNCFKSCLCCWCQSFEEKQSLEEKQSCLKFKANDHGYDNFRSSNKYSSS

rat ETB receptor = target: T2, rat ETB receptor (Rattus norvegicus, UniProt P21451); experiment: Determination of EC50s of polypeptides against rat ETB receptor; details: Table 8, rat ETB receptor; read-out: DETAR Agonist Activity EC50
T2 construct: expressed in transfected cells
T2 sequence (P21451 27-442): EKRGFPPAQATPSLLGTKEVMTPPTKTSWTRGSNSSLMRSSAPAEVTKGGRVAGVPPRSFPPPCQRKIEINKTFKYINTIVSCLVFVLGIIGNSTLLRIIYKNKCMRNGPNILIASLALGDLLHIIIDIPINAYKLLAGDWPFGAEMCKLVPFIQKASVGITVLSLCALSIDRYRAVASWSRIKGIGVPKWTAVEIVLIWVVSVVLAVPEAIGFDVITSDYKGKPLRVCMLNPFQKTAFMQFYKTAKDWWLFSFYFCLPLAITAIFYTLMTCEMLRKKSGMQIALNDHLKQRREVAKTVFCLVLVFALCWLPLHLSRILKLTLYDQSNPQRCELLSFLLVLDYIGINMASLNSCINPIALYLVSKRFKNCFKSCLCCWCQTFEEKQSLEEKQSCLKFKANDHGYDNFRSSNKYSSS
Experimental: (§1) 293T-17 cells were seeded at a density of 650,000 cells per well in a 6-well plate and cultured overnight in an incubator at 37°C and 5% CO2. Afterward, the cells were transfected with an expression vector, PCDNA3.1-hETB which contained a human ETB receptor gene, at a plasmid concentration of 2.5 µg per well. The cells were further cultured for 48 hours, and green fluorescence expression was observed under a fluorescence microscope. The cells were then digested with trypsin and counted. The activity of compounds on the human ETB receptor was determined with the IP-One Gq kit from Cisbio Bioassays. The cells were suspended in Stim Buffer provided in the kit and the cell suspension was added to a 96-well detection plate at 7 µL cell suspension (containing 30,000 cells) per well. The polypeptides to be tested (prepared according to the Preparation Example of the invention) were diluted in Stim B to obtain a gradient of 11 concentration points. For each concentration point, the polypeptides to be tested were dissolved in Stim B to be at a concentration of 2×, and added at 7 µL to the test cells, while 7 µL of PBS solution was added to the cells in the negative control wells. The plate was sealed and incubated at 37°C for 1 hour in a cell culture incubator. Detection wells, positive control wells containing human endothelin ET1 (ET1: […] (C1-C15,C3-C11)), and PBS control wells were each added with 3 µL of IP1 d2 working solution and 3 µL of IP1 Tb cryptotate Antibody working solution. The plate was then sealed and incubated in the dark at room temperature (25°C±5°C) for 1 hour. The plate seal was removed, and the […] at 665 nm and 620 nm was measured with an ID5 microplate reader. The ratio of the acceptor emission signal to the donor emission signal, i.e., (signal at 665 nm/signal at 620 nm)×10^4, was calculated for each well. With F representing the average value of values of signal at 665 nm/signal at 620 nm for the test samples at various concentrations, a scatterplot was plotted, where the abscissa represented the F value, and the ordinate represented the logarithmic value of the peptide concentration. A curve was fitted with an appropriate method to calculate EC50 values of the polypeptides against the human ETB receptor. Another method was provided for fitting a curve where activation rate of the test polypeptides at each concentration relative to the positive control sample human endothelin ET1 was calculated first with the method in Example 1, and a scatterplot was plotted, where the abscissa represented the activation rate, and the ordinate represented the logarithmic value of the polypeptide concentration. A curve was fitted with an appropriate method to calculate the EC50 values of the polypeptides against the human ETB receptor.
The process is the same as that in Example 3, except that the transfected plasmid was expression vector PCDNA3.1-RETB which contained a rat ETB receptor gene. EC50 values of the polypeptides against the rat ETB receptor were calculated (see Figures 11-13). The sequence of the rat ETB receptor (NCBI accession number: X57764.1).

mouse ETB receptor = target: T3, mouse ETB receptor (Mus musculus, UniProt P48302); experiment: Determination of EC50s of polypeptides against mouse ETB receptor; details: Table 9, mouse ETB receptor; read-out: DETAR Agonist Activity EC50
T3 construct: expressed in transfected cells
T3 sequence (P48302 27-442): T2 sequence (P21451 27-442) with P12L, V52G, K67N, N71S, A133T, G139E, V216M, I265V, Q330H

dog ETB receptor = target: T4, dog ETB receptor (Canis lupus familiaris, UniProt P56497); experiment: Determination of EC50s of polypeptides against dog ETB receptor; details: Table 7, dog ETB receptor; read-out: DETAR Agonist Activity EC50
T4 construct: expressed in transfected cells
T4 sequence (P56497 27-442): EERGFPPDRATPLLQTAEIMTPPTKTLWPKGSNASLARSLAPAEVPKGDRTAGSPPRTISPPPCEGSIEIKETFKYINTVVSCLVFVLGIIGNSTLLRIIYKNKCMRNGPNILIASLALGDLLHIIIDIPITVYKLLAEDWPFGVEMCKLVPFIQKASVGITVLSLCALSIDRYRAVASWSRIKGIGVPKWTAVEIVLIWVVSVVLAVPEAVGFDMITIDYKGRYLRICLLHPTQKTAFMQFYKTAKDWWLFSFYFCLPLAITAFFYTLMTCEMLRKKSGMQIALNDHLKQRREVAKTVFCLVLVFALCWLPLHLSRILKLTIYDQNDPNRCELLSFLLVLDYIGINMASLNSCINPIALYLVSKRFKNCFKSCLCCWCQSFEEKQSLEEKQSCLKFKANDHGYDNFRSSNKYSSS
Experimental: as §1
The process is the same as that in Example 3, except that the transfected plasmid was expression vector PCDNA3.1-DETB which contained a dog ETB receptor gene. EC50 values of the polypeptide against the dog ETB receptor were calculated (see Figures 8-10). The sequence of the dog endothelin receptor B (NCBI accession number: NM_001010943.2).

SMILES: CC[C@H](C)[C@H](NC(=O)[C@H](CC(=O)O)NC(=O)[C@H](CC(C)C)NC(=O)[C@H](Cc1c[nH]cn1)NC(=O)[C@H](C)NC(=O)[C@H](Cc1ccccc1)NC(=O)[C@H](Cc1ccc(O)cc1)NC(=O)[C@@H](NC(=O)[C@H](C)NC(=O)[C@H](CCC(=O)O)NC(=O)[C@H](CCC(=O)O)NC(=O)[C@H](CC(=O)O)NC(=O)CCC(=O)NCCNC(=O)COCCOCCNC(=O)COCCOCCNC(=O)CC[C@H](NC(=O)CCCCCCCCCCCCCCCCC(=O)O)C(=O)O)C(C)C)C(=O)N[C@H](C(=O)N[C@@H](Cc1c[nH]c2ccccc12)C(=O)O)[C@@H](C)CC [BX-256] ({C18 diacid-γGlu-AEEA-AEEA-Ethylenediamine-Suc}-DEEAVYFAHLDIIW-OH)
- EC50 (human ETB receptor): 41 nM
- pEC50 (rat ETB receptor): 6.93
- pEC50 (mouse ETB receptor): 7.34
- pEC50 (dog ETB receptor): 6.86
